Data from patent US20260232828A1, “LIGAND-CYTOTOXICITY DRUG CONJUGATES AND PHARMACEUTICAL USES THEREOF” (HANSOH BIO LLC, priority 2023, published 2026).

Key:
[1] = system: CDH17 positive cell line AsPC1, GP2d and CDH17 negative cell line SW480; test: Flow cytometry binding of hybridoma supernatants to CDH17 expressing cancer cells; set-up: species or system human; details: undiluted hybridoma supernatant, in words
Procedure: Hybridoma supernatants were subjected to binding tests on CDH17 positive cell line AsPC1 (ATCC, CRL-1682), GP2d (Creative bioarray, CSC-J9456), and CDH17 negative cell line SW480 (ATCC, CCL-228) using flow cytometry analysis. Briefly, 50 μL of cells in cell staining buffer (2×10^6 cells/mL) was mixed with 50 μL undiluted supernatants. The mixture was incubated on ice for 1 hour and then washed with ice-cold staining buffer twice. The cells were subsequently stained with 50 μL of PE labeled secondary antibody (1:250 dilution, Biolegend, Cat #405307) for 20 min. After washing by staining buffer and fixing by 4% PFA, cells were analyzed by flow cytometry.
A purified anti-human CDH17 antibody was used as a positive control (Sino Biological, Cat #11360-MM02). A purified mouse IgG1 antibody was used as isotype control (Biolegend, Cat #400102).

BSA = BSA (Bos taurus, UniProt P02769); test: ELISA binding of hybridoma clones to BSA (specificity control); details: hybridoma supernatant; plate coated with BSA
Procedure: (§1) ELISA was performed using the DuoSet ELISA Ancillary Kit (R&D System, DY008). ELISA plates were coated with 1 μg/ml of human CDH17 His Tag (Sino biological, catalog number 11360-H08H), or BSA overnight. Excess unbound proteins were washed off by washing the plates three times with the wash buffer before blocking for 1 hour at room temperature. 100 μl CDH17 hybridoma supernatant was added in each well and incubated for 1 hour at room temperature. Excess unbound antibodies were washed off and 100 μl of 1:30000 diluted secondary antibody Goat anti-mouse IgG Fc-HRP (ab5870) was added to each well for another 1 hour. Plates were washed before the addition 50 μL of […] (color A and color B) according to manufacturer's protocol. The reactions were stopped using 25 μL of stop solution. Optical density at 450 nm of samples was measured by a microplate reader (PerkinElmer). All tested clones bound selectively to human CDH17 but not BSA.

AsPC1 cells = test: Indirect killing assay (cell internalization) of hybridoma supernatants; format: cell-based, human; details: hybridoma supernatant with Fab anti-mouse IgG Fc-MMAF 20 nM, in words
Procedure: Cell internalization activities of hybridoma supernatants were measured using an indirect killing assay in AsPC1 cells. The AsPC1 cells were seeded in 96 well plate at 8,000 cells/well with propidium iodide (abeam, Cat #ab14083) at 500 ng/mL and SPY650-DNA (Cytoskeleton, Inc., Cat #CYSC501) at 1:2000 dilution. Cells were incubated overnight at 37° C. in 5% CO2. The hybridoma supernatants from each hybridoma clone were diluted with hybridoma culture medium containing 500 ng/mL propidium iodide and 2000-fold diluted SPY650-DNA and mixed with Fab anti-mouse IgG Fc-MMAF conjugates with cleavable linker (Moradec, AM-202AF), then added to each well. The final concentrations of mouse IgG were roughly 10 nM, 3.33 nM, and 1.11 nM. The final concentration of the Fab anti-mouse IgG Fc-MMAF conjugates in each well was 20 nM. With the presence of secondary Fab-vc-MMAF, the internalized antibody/Fab-vc-MMAF conjugates complex will release the cytotoxic payload and kill the cells. Cytation5 (Agilent) was used to detect the viability of the cells in each well by imaging the plates every 8 h.
A purified anti-human CDH17 antibody was used as a positive control (Invitrogen, Cat #MA5-29135). A purified mouse IgG1 antibody was used as isotype control (Biolegend, Cat #400102).

human CDH17 His Tag = target: T1, human CDH17 His Tag (Homo sapiens, UniProt Q12864); test: ELISA binding of hybridoma clones to human CDH17 protein; details: hybridoma supernatant; plate coated with 1 μg/ml antigen
T1 construct: His tag; purchased Sino biological 11360-H08H
Procedure: as §1

Chain of BSA (P02769 25-607): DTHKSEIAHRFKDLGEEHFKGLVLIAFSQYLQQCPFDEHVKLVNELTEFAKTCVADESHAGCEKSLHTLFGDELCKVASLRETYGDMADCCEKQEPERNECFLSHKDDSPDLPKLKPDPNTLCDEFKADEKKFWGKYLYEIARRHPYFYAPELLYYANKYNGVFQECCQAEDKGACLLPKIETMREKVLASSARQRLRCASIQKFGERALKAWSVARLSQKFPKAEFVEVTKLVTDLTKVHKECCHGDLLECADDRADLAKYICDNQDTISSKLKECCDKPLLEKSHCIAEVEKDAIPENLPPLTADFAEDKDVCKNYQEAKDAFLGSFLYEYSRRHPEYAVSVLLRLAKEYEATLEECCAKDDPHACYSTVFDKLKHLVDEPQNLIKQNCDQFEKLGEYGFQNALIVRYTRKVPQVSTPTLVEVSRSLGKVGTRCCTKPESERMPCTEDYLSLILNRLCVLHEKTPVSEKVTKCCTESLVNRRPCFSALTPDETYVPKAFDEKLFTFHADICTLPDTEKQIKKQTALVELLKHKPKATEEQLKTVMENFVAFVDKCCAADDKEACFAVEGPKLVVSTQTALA

Row | Molecule | binding profile to CDH17 positive versus negative cells [1] | Protein binding (BSA) (BSA) [OD450] | cell internalization activity (AsPC1 cells) | Protein binding (human CDH17) (human CDH17 His Tag) [OD450]
1 | 4F9: anti-CDH17 antibody; SEQ ID NO 81 (heavy chain) and 82 (light chain) (antibody, listed as Homo sapiens) heavy: QVQLQESGPGLVKPSGTLSLTCAVSGGSISSSNWWSWVRQPPGKGLEWIGEIYHSGSTSYNPSLKSRVTISVDKSKNQFSLKLSSVTAADTAVYYCARNDWGFPLDCWGQGTLVTVSS[letters of human IgG1 constant region omitted] light: DIQMTQSPSSLSASVGDRVTITCRASQSISSYLNWYQQKPGKAPKLLIYAASSLQSGVPSRFSGSGSGTHFTLTISSLQPEDFATYYCQQSHNIPITFGQGTRLEIKRTVAAPSVFIFPPSDEQLKSGTASVVCLLNNFYPREAKVQWKVDNALQSGNSQESVTEQDSKDSTYSLSSTLTLSKADYEKHKVYACEVTHQGLSSPVTKSFNRGEC | enhanced binding profile to AsPC1 cells and GP2d cells compared to SW480 cells | 0.051 | capable of internalizing into CDH17 positive cell line | 1.5202
2 | 13C7: anti-CDH17 antibody; SEQ ID NO 87 (heavy chain) and 88 (light chain) (antibody, listed as Homo sapiens) heavy: QITLKESGPTLVKPTQTLTLTCTFSGFSLSTSGVGVGWIRQPPGKALEWLALIYWNDDKRYRPSLKNRLTITKDTSKNQVVLTMTNMDPVDTATYYCTHYGVTAPFYNWFDPWGQGTLVTVSS[letters of human IgG1 constant region omitted] light: DIQMTQSPSSLSASVGDRVTITCRASQSITSYLNWYQQKPGKAPKLLIYAASSLQSGVPSRFSGSGSGTDFTLTISSLQPEDFATYYCQRSYSTLTFGGGTKVEIKRTVAAPSVFIFPPSDEQLKSGTASVVCLLNNFYPREAKVQWKVDNALQSGNSQESVTEQDSKDSTYSLSSTLTLSKADYEKHKVYACEVTHQGLSSPVTKSFNRGEC | enhanced binding profile to AsPC1 cells and GP2d cells compared to SW480 cells | 0.0432 | capable of internalizing into CDH17 positive cell line | 1.6185
3 | 9E2: anti-CDH17 antibody; SEQ ID NO 83 (heavy chain) and 84 (light chain) (antibody, listed as Homo sapiens) heavy: EVQLVESGGGVVRPGGSLRLSCAASGFTFDNYGMSWVRQAPGKGLEWVSGINWNGGSTYYADSVRGRFTISRDNAKNSLYLQMNSLRAEDTALYYCARGSRYNWSYDAFDIWGQGTLVTVSS[letters of human IgG1 constant region omitted] light: DIQMTQSPSSLSASVGDRVTITCRASQGVRNALGWYQQKPGKAPKRLIYAASSLQSGVPSRFSGSGSGTEFTLTISSLQPEDFATYYCLQHNSYPFTFGPGTKVEIKRTVAAPSVFIFPPSDEQLKSGTASVVCLLNNFYPREAKVQWKVDNALQSGNSQESVTEQDSKDSTYSLSSTLTLSKADYEKHKVYACEVTHQGLSSPVTKSFNRGEC | enhanced binding profile to AsPC1 cells and GP2d cells compared to SW480 cells | 0.0429 | capable of internalizing into CDH17 positive cell line | 1.4804
